Out of some 110,000 compounds screened, about 230 (0.21%) showed an effect of 50% or more. The list shows a part of the results.
biological target: DPAP1 (Plasmodium falciparum, UniProt Q8IIJ9); test: primary screen, percent inhibition; read by cleavage of a fluorogenic dipeptide substrate; higher = more effect of the substance; set-up: species or system P. falciparum D10 trophozoite lysates; single well
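Further: 30 min substrate incubation versus DMSO and 10 µM JCP410 controls.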

Chain of DPAP1 (Q8IIJ9 whole entry, looked up): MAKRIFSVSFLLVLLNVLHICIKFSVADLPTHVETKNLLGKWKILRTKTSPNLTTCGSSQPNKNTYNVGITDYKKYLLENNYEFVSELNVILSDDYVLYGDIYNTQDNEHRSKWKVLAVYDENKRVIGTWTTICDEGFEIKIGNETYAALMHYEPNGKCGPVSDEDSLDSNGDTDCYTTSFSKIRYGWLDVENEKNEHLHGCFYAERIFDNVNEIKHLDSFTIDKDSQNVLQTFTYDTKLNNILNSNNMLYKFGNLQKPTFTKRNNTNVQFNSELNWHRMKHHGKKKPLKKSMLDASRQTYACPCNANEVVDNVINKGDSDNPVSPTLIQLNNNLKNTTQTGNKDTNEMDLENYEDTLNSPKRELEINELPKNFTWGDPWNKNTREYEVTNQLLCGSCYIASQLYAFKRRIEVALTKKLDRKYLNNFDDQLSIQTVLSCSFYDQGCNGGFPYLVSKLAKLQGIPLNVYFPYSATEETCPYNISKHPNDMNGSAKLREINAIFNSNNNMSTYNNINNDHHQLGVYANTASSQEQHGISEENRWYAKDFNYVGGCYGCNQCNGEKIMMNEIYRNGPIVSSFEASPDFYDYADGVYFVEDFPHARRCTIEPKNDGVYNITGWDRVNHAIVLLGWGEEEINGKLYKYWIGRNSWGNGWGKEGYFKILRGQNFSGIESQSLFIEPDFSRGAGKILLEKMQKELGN

Compound	% Inhibition @ 10 uM
Cc1ccsc1C1C(C#N)=C(N)Oc2c1c(=O)oc1ccccc21 (centres unmarked)	4.26%
Cc1ccc2nc3c(c(N)c2c1)CCCCN3C	0.266%
CCN(CC)CCCNC(=O)C1CCN(Cc2nc(-c3ccc(Cl)cc3)oc2C)CC1	-1.05%
CCn1ncc(C2=NOC(C(=O)Nc3cnn(C45CC6CC(CC(C6)C4)C5)c3)C2)c1C (centres unmarked)	0.291%
COc1ccc(-c2[nH]nc3c2C(c2ccoc2)C(C#N)=C(N)O3)cc1 (centres unmarked)	4.09%
N#CC1C(=O)NC(=O)C([n+]2ccccc2)C1c1ccc(Cl)cc1 (centres unmarked)	2.51%
CCc1ccc(-c2[nH]nc3nc(-c4ccc(C(=O)OC)cc4)cc(C(=O)O)c23)cc1	-0.901%
Cc1nn(Cc2ccccc2)c(=O)[nH]c1=O	-1.85%
CC(=O)C(C(C)=O)C1=CC(=O)C(=O)c2ccccc21	21.8%
CC1(C)CC(CC(N)=O)(c2ccccc2)CCO1 (centres unmarked)	3.76%
COc1ccc(-c2ccc(C#N)c(O)n2)cc1	12.8%
O=C(NCc1ccccc1)C(=O)NCc1ccc(Cl)cc1	1.29%
Cc1ccc(NC(=O)c2ccccc2F)cc1C	-2.03%
COc1ccccc1N1CCN(Cc2c(C)n(C)n(-c3ccccc3)c2=O)CC1	3.35%
COc1ccc(/C=c2\sc3nc(=O)c(C)nn3c2=O)cc1	0.222%
CC(Oc1ccccc1)C(=O)Nc1cc(Cl)ccc1O (centres unmarked)	2.22%
O=C(Cn1c(-c2cncs2)nc2ccccc21)NCc1ccc(F)cc1	-2.05%
Cn1cc(CCC(=O)N2CCC(C(N)=O)CC2)c2ccccc21	3.36%
CC1=C(C(=O)OCC2CCCO2)C(c2ccccc2Cl)NC(=O)N1 (centres unmarked)	3.61%
CCOCCCNC(=O)Nc1cnc2cc(OC)ccc2c1O	0.635%
N#CC1=C(N)OC2=C(CN(Cc3ccccc3)C/C2=C\c2cccnc2)C1c1cccnc1 (centres unmarked)	0.628%
C(=C\c1ccc2ccccc2n1)/c1cccnc1	19.6%
C=CCNS(=O)(=O)c1c(C)cc(Cl)nc1Cl	2.18%
CCOc1ccc(N2Cc3ccc(OC)c(OC)c3C2=O)cc1	2.16%
O=C(Nc1cccc2ccccc12)NC(CC(=O)c1ccc(Cl)cc1Cl)C(Cl)(Cl)Cl (centres unmarked)	-1.46%

Compound	% Inhibition @ 10 uM
CC/N=C1\S/C(=C\c2ccc(-c3cccc(C(=O)O)c3)o2)C(=O)N1CC	0.611%
Cc1cc(Cl)ccc1NC(=O)CN(C)S(=O)(=O)c1cc(Cl)ccc1Cl	5.29%
Cn1c(-c2cccc(Br)c2)nc2ccccc21	-0.551%
Cc1ccc(OCC(=O)Nc2ccc(Br)cc2)cc1	-3.45%
C=C(C)C1CCC(C)OC1c1ccc2c(c1)OCO2 (centres unmarked)	3.05%
Cc1[nH]c2ccccc2c1C=C1C(=O)NC(=O)NC1=O	-0.85%
CC1CCCC(N2CCN(CCO)CC2)C1 (centres unmarked)	-0.0953%
CCOC(=O)C1CCN(Cc2ccc(OC)c(Br)c2)CC1	-5.68%
Cc1ccc2c(c1)-c1c(cnn1CC(=O)NCCCN(Cc1ccco1)C1CCCC1)CO2	2.73%
CC1CCC(C(=O)NC(Cc2c[nH]c3ccccc23)C(=O)NCCCN2CC(C)CC(C)C2)CC1 (centres unmarked)	-0.228%
COc1ccc(/C=C/C(=O)NC(=S)Nc2cc([N+](=O)[O-])cc(Cl)c2O)cc1OC	3.47%
O=C(c1cc(S(=O)(=O)N2CCOCC2)ccc1Cl)N1CCOCC1	8.06%
N#CCNC(=O)[C@@H](Cc1ccc(I)cc1)NC(=O)OCc1ccccc1	-6.56%
CCCCc1c(O)c2cccc3c2n(c1=O)CCC3	7.33%
COc1ccc(CNC(=O)c2cc3c(C)nccc3nc2O)cc1	4.47%
O=C(O)c1ccc([N+](=O)[O-])c2c1NCC1CC=CC21 (centres unmarked)	-3.09%
C=CCN1CC(=O)C(c2nc3ccccc3[nH]2)=C1N	2.14%
CC1CC(=O)C2=C(C1)OC(N)=C(C#N)C2c1ccco1 (centres unmarked)	-4.02%
CCc1n(CC(O)COc2cccc(Cl)c2)c2ccccc2[n+]1C (centres unmarked)	2.95%
CC1=[N+](CCCS(=O)(=O)O)SC2C=CC(Cl)=CC12 (centres unmarked)	-2.91%
O=C(C1CCN(S(=O)(=O)N2CCC3(CC2)OCCO3)CC1)N1CCCCC1	-8.73%
Cc1cc(NC(=O)Cn2cnc3onc(-c4ccc(Cl)cc4)c3c2=O)no1	-1.51%
Cc1cc(C)nc(NS(=O)(=O)c2ccc(NC(=O)CSc3nc(C)cc(C)n3)cc2)n1	-7.08%
O=C1CC(c2ccccc2Cl)Cc2nc(NC3CC3)ncc21 (centres unmarked)	3.87%
CCN1CCC(N2CCN(c3ccc(Cl)cc3)CC2)CC1	-5.9%

From publication PMC6919601, “Identification of Plasmodium dipeptidyl aminopeptidase allosteric inhibitors by high throughput screening” (PLoS ONE, 2019)
